{"source": "the supplement of paper PMC8728848", "binders": {"B1": {"name": "Neuropilin-2 (Homo sapiens), O60462 (protein)", "chain": "MDMFPLTWVFLALYFSRHQVRGQPDPPCGGRLNSKDAGYITSPGYPQDYPSHQNCEWIVYAPEPNQKIVLNFNPHFEIEKHDCKYDFIEIRDGDSESADLLGKHCGNIAPPTIISSGSMLYIKFTSDYARQGAGFSLRYEIFKTGSEDCSKNFTSPNGTIESPGFPEKYPHNLDCTFTILAKPKMEIILQFLIFDLEHDPLQVGEGDCKYDWLDIWDGIPHVGPLIGKYCGTKTPSELRSSTGILSLTFHTDMAVAKDGFSARYYLVHQEPLENFQCNVPLGMESGRIANEQISASSTYSDGRWTPQQSRLHGDDNGWTPNLDSNKEYLQVDLRFLTMLTAIATQGAISRETQNGYYVKSYKLEVSTNGEDWMVYRHGKNHKVFQANNDATEVVLNKLHAPLLTRFVRIRPQTWHSGIALRLELFGCRVTDAPCSNMLGMLSGLIADSQISASSTQEYLWSPSAARLVSSRSGWFPRIPQAQPGEEWLQVDLGTPKTVKGVIIQGARGGDSITAVEARAFVRKFKVSYSLNGKDWEYIQDPRTQQPKLFEGNMHYDTPDIRRFDPIPAQYVRVYPERWSPAGIGMRLEVLGCDWTDSKPTVETLGPTVKSEETTTPYPTEEEATECGENCSFEDDKDLQLPSGFNCNFDFLEEPCGWMYDHAKWLRTTWASSSSPNDRTFPDDRNFLRLQSDSQREGQYARLISPPVHLPRSPVCMEFQYQATGGRGVALQVVREASQESKLLWVIREDQGGEWKHGRIILPSYDMEYQIVFEGVIGKGRSGEIAIDDIRISTDVPLENCMEPISAFAGENFKVDIPEIHEREGYEDEIDDEYEVDWSNSSSATSGSGAPSTDKEKSWLYTLDPILITIIAMSSLGVLLGATCAGLLLYCTCSYSGLSSRSCTTLENYNFELYDGLKHKVKMNHQKCCSEA"}}, "experiment_in_all_cases": "glycan array binding signal (z-score within array); higher = stronger binding", "conditions_in_all_cases": "glycan notation: IUPAC condensed, linker removed", "key": {"[1]": {"target": "Neu5Ac(a2-6)Gal(b1-4)GlcNAc(b1-3)Gal(b1-4)GlcNAc", "how_it_was_run": "(§1)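 Glycan array data were curated from 3228 arrays in the Consortium for Functional Glycomics database and kept only where the protein sequence was available. Glycan names were converted to IUPAC-condensed notation, and columns mapping to the same glycan were averaged. The binding signal is a within-array Z-score, averaged across arrays of the same protein sequence at different concentrations or buffers and across linkers. Negative Z-scores can be read as non-binding.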"}, "[2]": {"target": "Neu5Ac(a2-6)Gal(b1-4)GlcNAc(b1-3)Gal(b1-4)GlcNAc(b1-3)Gal(b1-4)GlcNAc", "how_it_was_run": "as §1"}, "[3]": {"target": "Neu5Ac(a2-6)Gal(b1-4)GlcNAc(b1-3)Gal(b1-4)[Fuc(a1-3)]GlcNAc(b1-3)Gal(b1-4)[Fuc(a1-3)]GlcNAc", "how_it_was_run": "as §1"}, "[4]": {"target": "Neu5Ac(a2-6)Gal(b1-4)GlcNAc(b1-3)GalNAc", "how_it_was_run": "as §1"}, "[5]": {"target": "Neu5Ac(a2-6)Gal(b1-4)GlcNAc6S", "how_it_was_run": "as §1"}, "Neu5Ac(a2-6)GalNAc": {"target": "Neu5Ac(a2-6)GalNAc", "how_it_was_run": "as §1"}, "[6]": {"target": "Neu5Ac(a2-6)GalNAc(b1-4)GlcNAc", "how_it_was_run": "as §1"}, "[7]": {"target": "Neu5Ac(a2-6)GlcNAc(b1-4)GlcNAc", "how_it_was_run": "as §1"}, "[8]": {"target": "Neu5Ac(a2-6)GlcNAc(b1-4)GlcNAc(b1-4)GlcNAc", "how_it_was_run": "as §1"}, "Neu5Ac(a2-8)Neu5Ac": {"target": "Neu5Ac(a2-8)Neu5Ac", "how_it_was_run": "as §1"}, "[9]": {"target": "Neu5Ac(a2-8)Neu5Ac(a2-3)Gal(b1-4)Glc", "how_it_was_run": "as §1"}, "[10]": {"target": "Neu5Ac(a2-8)Neu5Ac(a2-3)[GalNAc(b1-4)]Gal(b1-4)Glc", "how_it_was_run": "as §1"}, "[11]": {"target": "Neu5Ac(a2-8)Neu5Ac(a2-8)Neu5Ac", "how_it_was_run": "as §1"}, "[12]": {"target": "Neu5Ac(a2-8)Neu5Ac(a2-8)Neu5Ac(a2-3)Gal(b1-4)Glc", "how_it_was_run": "as §1"}, "[13]": {"target": "Neu5Ac(a2-8)Neu5Ac(a2-8)Neu5Ac(a2-3)[GalNAc(b1-4)]Gal(b1-4)Glc", "how_it_was_run": "as §1"}, "[14]": {"target": "Neu5Ac(a2-8)Neu5Ac(a2-8)Neu5Ac(a2-8)Neu5Ac(a2-3)[GalNAc(b1-4)]Gal(b1-4)Glc", "how_it_was_run": "as §1"}, "[15]": {"target": "Neu5Ac(b2-6)Gal(b1-4)GlcNAc", "how_it_was_run": "as §1"}, "Neu5Ac(b2-6)GalNAc": {"target": "Neu5Ac(b2-6)GalNAc", "how_it_was_run": "as §1"}, "[16]": {"target": "Neu5Ac9Ac(a2-3)Gal(b1-3)GlcNAc", "how_it_was_run": "as §1"}, "[17]": {"target": "Neu5Ac9Ac(a2-3)Gal(b1-4)GlcNAc", "how_it_was_run": "as §1"}, "[18]": {"target": "Neu5Ac9Ac(a2-6)Gal(b1-4)GlcNAc", "how_it_was_run": "as §1"}, "[19]": {"target": "Neu5Gc(a2-3)Gal(b1-3)GlcNAc", "how_it_was_run": "as §1"}, "[20]": {"target": "Neu5Gc(a2-3)Gal(b1-3)[Fuc(a1-4)]GlcNAc", "how_it_was_run": "as §1"}, "Neu5Gc(a2-3)Gal(b1-4)Glc": {"target": "Neu5Gc(a2-3)Gal(b1-4)Glc", "how_it_was_run": "as §1"}, "[21]": {"target": "Neu5Gc(a2-3)Gal(b1-4)GlcNAc", "how_it_was_run": "as §1"}, "[22]": {"target": "Neu5Gc(a2-3)Gal(b1-4)[Fuc(a1-3)]GlcNAc", "how_it_was_run": "as §1"}, "[23]": {"target": "Neu5Gc(a2-6)Gal(b1-4)GlcNAc", "how_it_was_run": "as §1"}, "Neu5Gc(a2-6)GalNAc": {"target": "Neu5Gc(a2-6)GalNAc", "how_it_was_run": "as §1"}, "[24]": {"target": "Neu5Gc(b2-6)Gal(b1-4)GlcNAc", "how_it_was_run": "as §1"}}, "note": "The other results are listed elsewhere or left out.", "data": [{"binder": "B1", "values": [{"measurement": "glycan array binding signal (z-score)", "setting": "[1]", "result": 0.105}, {"measurement": "glycan array binding signal (z-score)", "setting": "[2]", "result": 0.013}, {"measurement": "glycan array binding signal (z-score)", "setting": "[3]", "result": -0.191}, {"measurement": "glycan array binding signal (z-score)", "setting": "[4]", "result": -0.489}, {"measurement": "glycan array binding signal (z-score)", "setting": "[5]", "result": -0.418}, {"measurement": "glycan array binding signal (z-score)", "setting": "Neu5Ac(a2-6)GalNAc", "result": -0.647}, {"measurement": "glycan array binding signal (z-score)", "setting": "[6]", "result": -0.685}, {"measurement": "glycan array binding signal (z-score)", "setting": "[7]", "result": 0.338}, {"measurement": "glycan array binding signal (z-score)", "setting": "[8]", "result": -0.658}, {"measurement": "glycan array binding signal (z-score)", "setting": "Neu5Ac(a2-8)Neu5Ac", "result": 0.098}, {"measurement": "glycan array binding signal (z-score)", "setting": "[9]", "result": -0.423}, {"measurement": "glycan array binding signal (z-score)", "setting": "[10]", "result": -0.46}, {"measurement": "glycan array binding signal (z-score)", "setting": "[11]", "result": -0.338}, {"measurement": "glycan array binding signal (z-score)", "setting": "[12]", "result": -0.788}, {"measurement": "glycan array binding signal (z-score)", "setting": "[13]", "result": -0.568}, {"measurement": "glycan array binding signal (z-score)", "setting": "[14]", "result": 0.003}, {"measurement": "glycan array binding signal (z-score)", "setting": "[15]", "result": -0.691}, {"measurement": "glycan array binding signal (z-score)", "setting": "Neu5Ac(b2-6)GalNAc", "result": -0.561}, {"measurement": "glycan array binding signal (z-score)", "setting": "[16]", "result": -0.436}, {"measurement": "glycan array binding signal (z-score)", "setting": "[17]", "result": -0.232}, {"measurement": "glycan array binding signal (z-score)", "setting": "[18]", "result": 0.76}, {"measurement": "glycan array binding signal (z-score)", "setting": "[19]", "result": 0.011}, {"measurement": "glycan array binding signal (z-score)", "setting": "[20]", "result": -0.777}, {"measurement": "glycan array binding signal (z-score)", "setting": "Neu5Gc(a2-3)Gal(b1-4)Glc", "result": 0.728}, {"measurement": "glycan array binding signal (z-score)", "setting": "[21]", "result": -0.202}, {"measurement": "glycan array binding signal (z-score)", "setting": "[22]", "result": 0.171}, {"measurement": "glycan array binding signal (z-score)", "setting": "[23]", "result": 0.3}, {"measurement": "glycan array binding signal (z-score)", "setting": "Neu5Gc(a2-6)GalNAc", "result": -0.378}, {"measurement": "glycan array binding signal (z-score)", "setting": "[24]", "result": -0.111}]}]}
